Hit rate of the full screen: of about 45,000 compounds, about 200 (0.44%) were called active. About 7% were inconclusive and are not listed. The call rests on the fitted dose curve; in most records, active means well fitted activation curve with a large enough effect; inconclusive means small, poorly fitted or top-dose-only effect; inactive means no such curve, though single readings can be large or run the other way. The list shows a part of the results.
test: qHTS of TDP-43 Inhibitors: NCGC Sytravon Library Screen; settings: yeast TDP-43 toxicity rescue, BacTiter-Glo growth, 24 h; series mostly up to 46.1 µM; growth rescue (activation): at the top concentration; further: 0% is about no effect; nearly all actives have a fitted effect of over 55% in size
Outline: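 TDP-43-expressing yeast, pregrown in raffinose, seeded at OD600 0.02 in galactose medium with compound for 24 hr at 30 deg C. Growth read by BacTiter-Glo luminescence, so rescue of toxicity appears as activation.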

Compound	growth rescue (activation)
COc1ccc(CNC(=O)C2(C)Cc3c(-c4ccc5c(c4)OCO5)ccnc3O2)cc1OC (stereo unspecified)	inactive: 22.5%
CCCCN(C)CCC(=O)Nc1ccc(Cl)cc1	inactive: 3.32%
Cc1nc(SC(C(=O)c2ccccc2)c2ccccc2)nc2ccccc12 (stereo unspecified)	inactive: 9.05%
Cc1ccc(-c2ccc(S(=O)(=O)NCc3ccco3)cc2)cc1	inactive: 10.6%
NC(=O)c1ccc(SCC(=O)NC2CCCCC2)c([N+](=O)[O-])c1	inactive: 4.03%
CC(=O)c1c(NC(=O)c2ccccc2)[nH]c(-c2ccccc2)nc1=S	inactive: 16.3%
COc1cc(/C=N/NC(=S)Nc2cccc(C(=O)O)c2)cc(OC)c1OC	inactive: 7.5%
NC(=O)C1CCN(c2ccc(S(=O)(=O)N3CCCCC3)cc2[N+](=O)[O-])CC1	inactive: 6.1%
COc1c(N2CCN(C(=S)NCc3ccccc3)C(C)C2)c(F)cc2c(=O)c(C(=O)O)cn(C3CC3)c12 (stereo unspecified)	inactive: -21.1%
CCN(C(=O)Cn1c(=O)oc2cc(S(=O)(=O)N3CCCC3)ccc21)c1cccc(C)c1	inactive: -1.72%
CC(=NNC(=O)c1cc(C)nc2ccccc12)c1ccc(N2CCOCC2)cc1	inactive: 22.2%
O=C(NCCc1ccccc1)C(=O)c1c[nH]c2ccccc12	inactive: 16.5%
CC(OC(=O)c1ccc2c(=O)n3c(nc2c1)CCCCC3)C(=O)Nc1ccc(Cl)cn1 (stereo unspecified)	inactive: 8.93%
Cc1noc(C)c1COc1ccc(CC(=O)NC2CCCCCC2)cc1	inactive: 25%
CCOC(=O)C1CCCN(C(=O)c2cc(F)ccc2C)CC1 (stereo unspecified)	inactive: 23.4%
CCc1ccc(NC(=O)C(C)OC(=O)c2cccc(S(=O)(=O)N3CCc4ccccc4C3)c2)cc1 (stereo unspecified)	inactive: -5.43%
CCC(=O)Nc1ccc(C(=O)Nc2ccc(OC)cc2[N+](=O)[O-])cc1	inactive: 13.4%
O=c1cc(-c2cccc(Br)c2)nc(-c2ccccc2F)o1	inactive: -10.1%
CCN(CC)CCCNc1oc(-c2ccc(OC)c(OC)c2)nc1C#N	inactive: 13.7%
COc1ccc(NC(=O)O/N=C/c2ccc(Br)cc2)cc1	inactive: -10.5%
Cc1cc(C)cc(NC(=S)Nc2ccc(Cl)c(Cl)c2)c1	inactive: -90.3%
NC(=O)c1ccccc1NC(=O)Nc1ccc(F)c(Cl)c1	inactive: 9.49%

Compound	growth rescue (activation)
COc1ccc(S(=O)(=O)NCC(c2ccc(F)cc2)N2CCOCC2)cc1Br (stereo unspecified)	inactive: -1.55%
COc1cc(OC)cc(-c2cc3nc(C)c(CCC(=O)NCc4ccccc4)c(C)n3n2)c1	inactive: -9.99%
CC(C)c1ccc(NC(=O)c2ccc3c(c2)CCN3S(=O)(=O)c2ccccc2)cc1	inactive: -1.26%
CC(Sc1nc2c(c(=O)[nH]1)CCCC2)C(=O)Nc1ccc(S(N)(=O)=O)cc1 (stereo unspecified)	inactive: 4.83%
CC(OC(=O)c1cc(S(=O)(=O)N2CCOCC2)ccc1F)C(=O)NCC1CCCCC1 (stereo unspecified)	inactive: -9.38%
COCc1nnc(NC(=O)CCS(=O)(=O)c2ccccc2)s1	inactive: 16.3%
Clc1cccc(-c2nc(NCCN3CCOCC3)c3ccccc3n2)c1	inactive: 6.72%
NC(=O)c1cc([N+](=O)[O-])ccc1N1CCCCC1	inactive: 19.2%
NS(=O)(=O)c1ccc(NC(=O)/C=C/c2cccs2)cc1	inactive: -3.03%
O=C(N/N=C/c1cc(Cl)ccc1O)c1cccnc1	inactive: -4.2%
CCCCNC(=O)C(=O)NCc1ccncc1	inactive: -3.04%
CSc1ccccc1C(=O)N1CCCC(CCC(=O)NCc2ccc(F)c(F)c2)C1 (stereo unspecified)	inactive: 2.37%
CC(=O)N1CCc2cc(Br)cc(S(=O)(=O)CCC(=O)N3CCN(c4ccccn4)CC3)c21	inactive: -0.0676%
Cn1c(SCC(=O)Nc2sccc2C(N)=O)nnc1-c1ccncc1	inactive: 29%
CCC1(C)CC2(CCCN(CCC(=O)c3ccccc3)C2)CCO1 (stereo unspecified)	inactive: 5.28%
Clc1ccc(CNc2ccc(CNc3ncn[nH]3)cc2)c(Cl)c1	inactive: 6.96%
Cc1ccc(S(=O)(=O)N2CCOCC2)cc1NC(=O)COC(=O)c1ccc2c(c1)OCCO2	inactive: -3.85%
Cc1ccc(-c2nn(-c3ccccc3)cc2C2CC(c3ccccc3)=NN2C(=O)CCC(=O)O)cc1 (stereo unspecified)	inactive: -26.8%
Cc1cc(=O)[nH]c(N/N=C/c2ccccn2)n1	inactive: -0.037%
COc1ccc(CCC(=O)NCc2ccc3c(c2)OCO3)cc1	inactive: 2.3%
O=C(COc1ccc(S(=O)(=O)N2CCCCC2)cc1)NCc1ccccn1	inactive: -7.12%
CCN(CC(N)=O)S(=O)(=O)c1ccc(F)cc1	inactive: 2.14%

Compound	growth rescue (activation)
CCOC(=O)c1ccc(S(=O)(=O)N2CCN(C3CCCC3)CC2)cc1	inactive: 16.4%
COC1(OC)N=C(N)C2(C#N)C(c3cccc(Oc4ccccc4)c3)C12C#N (stereo unspecified)	inactive: -17.4%
Cc1ccc2[nH]c(C)c(/C=C/c3cc[n+](C)cc3)c2c1	inactive: 0.276%
COc1ccc(CC(=O)NNS(=O)(=O)c2cccc([N+](=O)[O-])c2)cc1OC	inactive: 1.72%
Cc1cc(Nc2ccccc2)c2c([N+](=O)[O-])ccc(C)c2n1	inactive: -0.189%
CC(=O)Nc1ccc(NC(=O)Cc2ccc(S(=O)(=O)N3CCCCC3)s2)cc1	inactive: -22.9%
O=C(c1ccc2c(c1)OCO2)N1CCN(S(=O)(=O)N2CCCCC2)CC1	inactive: 20%
CCc1nc2ccc(C(=O)N(C)CCCN(C)C)cn2c1N(C)Cc1cc2ccccc2s1	inactive: 8.62%
Cc1noc(C)c1C(=O)OC(C)C(=O)Nc1ccc(S(=O)(=O)NC(C)C)cc1 (stereo unspecified)	inactive: 1.57%
CC(C)=C(C)c1cc2nc(NCCCN(C)C)n(C)c(=O)c2s1	inactive: 6.55%
COc1ccc(NC(=O)c2cc(-c3ccc(C)cc3)on2)cc1	inactive: 7.77%
CN(Cc1cccc2ncccc12)C(=O)CC1C(=O)NCCN1Cc1ccc(F)cc1 (stereo unspecified)	inactive: 4.99%
COc1ccccc1OCc1ccc(C(=O)NC2CCCCC2)o1	inactive: 20%
O=C(CCC1CCCN(C(=O)c2ccc3[nH]ccc3c2)C1)N1CCN(c2ccccn2)CC1 (stereo unspecified)	inactive: -1.83%
Cc1ccc(C(=O)N/C(=C\c2ccc(-c3ccccc3[N+](=O)[O-])o2)C(=O)NCCCN(C)C)cc1	inactive: 0.652%
COc1ccc(N(C(=O)CNC(=O)c2ccco2)C(C(=O)NC2CCCC2)c2ccncc2)cc1 (stereo unspecified)	inactive: -7%
COCCNC(=O)C1(C)CCN(C(=O)/C=C/c2ccccc2)C1 (stereo unspecified)	inactive: -4.65%
O=C(Nc1cccc(Cl)c1)Nc1cc(S(=O)(=O)N2CCOCC2)ccc1N1CCCC1	inactive: -8.82%
COc1nccnc1NS(=O)(=O)c1ccc(NCc2ccccc2O)cc1	inactive: 9.17%
CCC(C)(C)NC(=O)C(c1ccccc1Cl)N(C(=O)CCC(=O)Nc1cc(C)on1)c1ccc(NC(C)=O)cc1 (stereo unspecified)	inactive: 0.514%
Cc1cccnc1CN1CCN(C(=O)CCc2nnc(CCc3ccccc3)o2)CC1	inactive: -6.08%
O=C(NCc1ccc(F)cc1)c1cc(C2CCCCN2C(=O)c2ccccc2)on1 (stereo unspecified)	inactive: 25.4%

Source: PubChem BioAssay AID1347073 (National Center for Advancing Translational Sciences (NCATS), 2019)
